# Data taken from the supplement of paper PMC8728848.
# Some of the results follow.
# Tests used:
# Assay in all cases: glycan array binding signal (z-score within array); higher = stronger binding
# Conditions in all cases: glycan notation: IUPAC condensed, linker removed
# [1] = molecular target: Fuc(a1-2)Gal6S(b1-3)GlcNAc
# Method in brief: (§1)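 Negative Z-scores can be read as non-binding. The Z-score is calculated within each array and then averaged across arrays of one protein sequence at different concentrations or buffers and across linkers. Arrays, 3228 in all, were curated from the Consortium for Functional Glycomics database and kept only where the protein sequence was available.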
# [2] = molecular target: Fuc(a1-2)Gal6S(b1-3)GlcNAc6S
# Method in brief: as §1
# Fuc(a1-2)Gal6S(b1-4)Glc = molecular target: Fuc(a1-2)Gal6S(b1-4)Glc
# Method in brief: as §1
# [3] = molecular target: Fuc(a1-2)Gal6S(b1-4)Glc6S
# Method in brief: as §1
# Fuc(a1-2)[Gal(a1-3)]Gal = molecular target: Fuc(a1-2)[Gal(a1-3)]Gal
# Method in brief: as §1
# [4] = molecular target: Fuc(a1-2)[Gal(a1-3)]Gal(b1-3)GalNAc
# Method in brief: as §1
# [5] = molecular target: Fuc(a1-2)[Gal(a1-3)]Gal(b1-3)GalNAc(b1-3)Gal(a1-4)Gal(b1-4)Glc
# Method in brief: as §1
# [6] = molecular target: Fuc(a1-2)[Gal(a1-3)]Gal(b1-3)GlcNAc
# Method in brief: as §1
# [7] = molecular target: Fuc(a1-2)[Gal(a1-3)]Gal(b1-3)GlcNAc(b1-2)Man(a1-3)[Fuc(a1-2)[Gal(a1-3)]Gal(b1-3)GlcNAc(b1-2)Man(a1-6)]Man(b1-4)GlcNAc(b1-4)GlcNAc
# Method in brief: as §1
# [8] = molecular target: Fuc(a1-2)[Gal(a1-3)]Gal(b1-3)GlcNAc(b1-2)Man(a1-3)[Fuc(a1-2)[Gal(a1-3)]Gal(b1-3)GlcNAc(b1-2)Man(a1-6)]Man(b1-4)GlcNAc(b1-4)[Fuc(a1-6)]GlcNAc
# Method in brief: as §1
# [9] = molecular target: Fuc(a1-2)[Gal(a1-3)]Gal(b1-3)GlcNAc(b1-3)GalNAc
# Method in brief: as §1
# [10] = molecular target: Fuc(a1-2)[Gal(a1-3)]Gal(b1-3)GlcNAc(b1-6)GalNAc
# Method in brief: as §1
# [11] = molecular target: Fuc(a1-2)[Gal(a1-3)]Gal(b1-4)Glc
# Method in brief: as §1
# [12] = molecular target: Fuc(a1-2)[Gal(a1-3)]Gal(b1-4)GlcNAc
# Method in brief: as §1
# [13] = molecular target: Fuc(a1-2)[Gal(a1-3)]Gal(b1-4)GlcNAc(b1-2)Man
# Method in brief: as §1
# [14] = molecular target: Fuc(a1-2)[Gal(a1-3)]Gal(b1-4)GlcNAc(b1-2)Man(a1-3)[Fuc(a1-2)[Gal(a1-3)]Gal(b1-4)GlcNAc(b1-2)Man(a1-6)]Man(b1-4)GlcNAc(b1-4)GlcNAc
# Method in brief: as §1
# [15] = molecular target: Fuc(a1-2)[Gal(a1-3)]Gal(b1-4)GlcNAc(b1-2)Man(a1-3)[Fuc(a1-2)[Gal(a1-3)]Gal(b1-4)GlcNAc(b1-2)Man(a1-6)]Man(b1-4)GlcNAc(b1-4)[Fuc(a1-6)]GlcNAc
# Method in brief: as §1
# [16] = molecular target: Fuc(a1-2)[Gal(a1-3)]Gal(b1-4)GlcNAc(b1-3)GalNAc
# Method in brief: as §1
# [17] = molecular target: Fuc(a1-2)[Gal(a1-3)]Gal(b1-4)GlcNAc(b1-3)[Fuc(a1-2)[Gal(a1-3)]Gal(b1-4)GlcNAc(b1-6)]GalNAc
# Method in brief: as §1
# [18] = molecular target: Fuc(a1-2)[Gal(a1-3)]Gal(b1-4)GlcNAc(b1-6)GalNAc
# Method in brief: as §1
# [19] = molecular target: Fuc(a1-2)[Gal(a1-3)]Gal(b1-4)[Fuc(a1-3)]Glc
# Method in brief: as §1
# [20] = molecular target: Fuc(a1-2)[Gal(a1-3)]Gal(b1-4)[Fuc(a1-3)]GlcNAc
# Method in brief: as §1
# [21] = molecular target: Fuc(a1-2)[Gal(a1-3)]Gal(b1-4)[Fuc(a1-3)]GlcNAc(b1-3)GalNAc
# Method in brief: as §1
# [22] = molecular target: Fuc(a1-2)[Gal(a1-4)]Gal(b1-4)GlcNAc
# Method in brief: as §1
# [23] = molecular target: Fuc(a1-2)[GalNAc(a1-3)]Gal
# Method in brief: as §1
# [24] = molecular target: Fuc(a1-2)[GalNAc(a1-3)]Gal(b1-3)GalNAc(a1-3)[Fuc(a1-2)]Gal(b1-4)GlcNAc
# Method in brief: as §1
# [25] = molecular target: Fuc(a1-2)[GalNAc(a1-3)]Gal(b1-3)GalNAc(b1-3)Gal(a1-4)Gal(b1-4)Glc
# Method in brief: as §1
# [26] = molecular target: Fuc(a1-2)[GalNAc(a1-3)]Gal(b1-3)GlcNAc
# Method in brief: as §1
# [27] = molecular target: Fuc(a1-2)[GalNAc(a1-3)]Gal(b1-3)GlcNAc(b1-2)Man(a1-3)[Fuc(a1-2)[GalNAc(a1-3)]Gal(b1-3)GlcNAc(b1-2)Man(a1-6)]Man(b1-4)GlcNAc(b1-4)GlcNAc
# Method in brief: as §1
# [28] = molecular target: Fuc(a1-2)[GalNAc(a1-3)]Gal(b1-3)GlcNAc(b1-2)Man(a1-3)[Fuc(a1-2)[GalNAc(a1-3)]Gal(b1-3)GlcNAc(b1-2)Man(a1-6)]Man(b1-4)GlcNAc(b1-4)[Fuc(a1-6)]GlcNAc
# Method in brief: as §1
# [29] = molecular target: Fuc(a1-2)[GalNAc(a1-3)]Gal(b1-3)GlcNAc(b1-3)GalNAc
# Method in brief: as §1
# [30] = molecular target: Fuc(a1-2)[GalNAc(a1-3)]Gal(b1-3)GlcNAc(b1-6)GalNAc
# Method in brief: as §1
# [31] = molecular target: Fuc(a1-2)[GalNAc(a1-3)]Gal(b1-4)Glc
# Method in brief: as §1
# [32] = molecular target: Fuc(a1-2)[GalNAc(a1-3)]Gal(b1-4)GlcNAc
# Method in brief: as §1
# [33] = molecular target: Fuc(a1-2)[GalNAc(a1-3)]Gal(b1-4)GlcNAc(b1-2)Man
# Method in brief: as §1
# [34] = molecular target: Fuc(a1-2)[GalNAc(a1-3)]Gal(b1-4)GlcNAc(b1-2)Man(a1-3)[Fuc(a1-2)[GalNAc(a1-3)]Gal(b1-4)GlcNAc(b1-2)Man(a1-6)]Man(b1-4)GlcNAc(b1-4)GlcNAc
# Method in brief: as §1
# [35] = molecular target: Fuc(a1-2)[GalNAc(a1-3)]Gal(b1-4)GlcNAc(b1-2)Man(a1-3)[Fuc(a1-2)[GalNAc(a1-3)]Gal(b1-4)GlcNAc(b1-2)Man(a1-6)]Man(b1-4)GlcNAc(b1-4)[Fuc(a1-6)]GlcNAc
# Method in brief: as §1
# [36] = molecular target: Fuc(a1-2)[GalNAc(a1-3)]Gal(b1-4)GlcNAc(b1-3)Gal(b1-4)GlcNAc
# Method in brief: as §1
# [37] = molecular target: Fuc(a1-2)[GalNAc(a1-3)]Gal(b1-4)GlcNAc(b1-3)Gal(b1-4)GlcNAc(b1-3)Gal(b1-4)GlcNAc
# Method in brief: as §1
# [38] = molecular target: Fuc(a1-2)[GalNAc(a1-3)]Gal(b1-4)GlcNAc(b1-3)GalNAc
# Method in brief: as §1
# [39] = molecular target: Fuc(a1-2)[GalNAc(a1-3)]Gal(b1-4)GlcNAc(b1-3)[Fuc(a1-2)[GalNAc(a1-3)]Gal(b1-4)GlcNAc(b1-6)]GalNAc
# Method in brief: as §1
# [40] = molecular target: Fuc(a1-2)[GalNAc(a1-3)]Gal(b1-4)GlcNAc(b1-6)GalNAc
# Method in brief: as §1
# [41] = molecular target: Fuc(a1-2)[GalNAc(a1-3)]Gal(b1-4)[Fuc(a1-3)]GlcNAc
# Method in brief: as §1
# [42] = molecular target: Fuc(a1-2)[GalNAc(a1-3)]Gal(b1-4)[Fuc(a1-3)]GlcNAc(b1-3)GalNAc
# Method in brief: as §1
# [43] = molecular target: Fuc(a1-2)[GalNAc(a1-4)]Gal(b1-4)GlcNAc
# Method in brief: as §1
binder,measurement,setting,value
"Arath Fbox (Arabidopsis thaliana), NP_178341.1 (protein) EFTWGRKRRVKSESSPFDSFPEDCISYIISFTNPRDACVAATVSKTFESTVKSDIIWEKFLPADYESLIPPSRVFSSKKELYFSLCNDPVLFDDDKKSVWLEKASGKRCLMLSAMNLSIIWGDNPQYWQWIPIPESRFEKVAKLRDVCWFEIRGRTNTRVLSPRTRYSAYIVFKGVDKCYGFQNVAIEAAVGVVGQEPSRRLICFSEAIRRGRRNVVKPKQREDGWMEIELGEFFNDGGIMDNDEIEMSALETKQLNRKCGLIIQGIEIRPAKILAAAAASFLEQKLISEEDLNSAVDHHHHHH",glycan array binding signal (z-score),[1],-0.733
same,glycan array binding signal (z-score),[2],0.431
same,glycan array binding signal (z-score),Fuc(a1-2)Gal6S(b1-4)Glc,-0.186
same,glycan array binding signal (z-score),[3],0.627
same,glycan array binding signal (z-score),Fuc(a1-2)[Gal(a1-3)]Gal,0.399
same,glycan array binding signal (z-score),[4],-0.646
same,glycan array binding signal (z-score),[5],-0.596
same,glycan array binding signal (z-score),[6],1.07
same,glycan array binding signal (z-score),[7],-0.056
same,glycan array binding signal (z-score),[8],1.57
same,glycan array binding signal (z-score),[9],1.01
same,glycan array binding signal (z-score),[10],0.025
same,glycan array binding signal (z-score),[11],-0.216
same,glycan array binding signal (z-score),[12],-0.119
same,glycan array binding signal (z-score),[13],-0.611
same,glycan array binding signal (z-score),[14],0.263
same,glycan array binding signal (z-score),[15],0.1
same,glycan array binding signal (z-score),[16],-0.265
same,glycan array binding signal (z-score),[17],0.078
same,glycan array binding signal (z-score),[18],0.042
same,glycan array binding signal (z-score),[19],-0.725
same,glycan array binding signal (z-score),[20],0.357
same,glycan array binding signal (z-score),[21],0.217
same,glycan array binding signal (z-score),[22],0.262
same,glycan array binding signal (z-score),[23],-0.178
same,glycan array binding signal (z-score),[24],-0.696
same,glycan array binding signal (z-score),[25],-0.553
same,glycan array binding signal (z-score),[26],-0.159
same,glycan array binding signal (z-score),[27],-0.718
same,glycan array binding signal (z-score),[28],-0.681
same,glycan array binding signal (z-score),[29],-0.618
same,glycan array binding signal (z-score),[30],-0.626
same,glycan array binding signal (z-score),[31],-0.466
same,glycan array binding signal (z-score),[32],-0.433
same,glycan array binding signal (z-score),[33],-0.212
same,glycan array binding signal (z-score),[34],-0.526
same,glycan array binding signal (z-score),[35],-0.087
same,glycan array binding signal (z-score),[36],-0.64
same,glycan array binding signal (z-score),[37],-0.193
same,glycan array binding signal (z-score),[38],-0.334
same,glycan array binding signal (z-score),[39],-0.551
same,glycan array binding signal (z-score),[40],-0.711
same,glycan array binding signal (z-score),[41],0.178
same,glycan array binding signal (z-score),[42],0.337
same,glycan array binding signal (z-score),[43],-0.487
